Experimental data published in a compilation of properties of binary mixtures (doi:10.1016/j.molliq.2011.08.008).
Some of these densities may be calculated back from excess volumes.

Assay: xn = mol fraction of the nth substance listed
Conditions: 100 kPa

CCOCCOCCOCCO + CCCC[n+]1ccn(C)c1.F[P-](F)(F)(F)(F)F
mass density [kg/m3]
Conditions	x2 = 0.0558	x2 = 0.1123	x2 = 0.2121	x2 = 0.3079	x2 = 0.4014	x2 = 0.5002	x2 = 0.6006	x2 = 0.7035	x2 = 0.8015	x2 = 0.9075
288.15 K	–	1078.3	–	1157.6	1191.3	1225.1	1257.7	1289.7	1318.9	1350.2
293.15 K	1048.3	1073.9	1116.3	1153.2	1187	1220.8	1253.5	–	–	–
298.15 K	1043.9	1069.5	1111.9	1148.9	1182.7	–	1249.3	1281	1310.6	–
303.15 K	1039.5	1065.1	1107.5	1144.5	1178.4	1212.3	1245.1	1276.7	–	1337.5
308.15 K	1035.1	1060.8	1103.2	1140.2	1174.1	–	1241	1272.5	1302.2	1333.4
313.15 K	–	–	1098.8	1135.9	1169.8	1203.8	1236.7	1268.2	–	1329.2
318.15 K	1026.4	1052	1094.5	1131.5	1165.5	1199.5	1232.4	1264	1293.7	1325
